# Laboratory results from PubChem BioAssay AID463173 (ICCB-Longwood Screening Facility, Harvard Medical School, 2010).
# About 1,700 (3.3%) of roughly 52,000 compounds were called active. Cut-off read from the data, not from the text of the source: active = survival mostly below about 52% (no sharp cut-off); inactive = mostly above about 56%. Some of the results follow.
# Tested on: Wild type
# Experiment: S. aureus survival, RN4220 and DeltatarO strains – OD600, teichoic acid synthesis inhibitors, primary screen (AID 463173)
# Conditions: S. aureus RN4220 wild type/DeltatarO growth, OD600, 18 h, stronger effect = lower value, screened at 18.75 µg/mL (by protocol)
row,SMILES,survival
1,CC1CN(C(=O)Nc2ccc(C(=O)NCCc3ccccc3)cc2)c2ccccc2S1 (stereo unspecified),inactive: 113%
2,Cc1cc(C)nc(NS(=O)(=O)c2ccc(NC(=O)COc3ccc(Cl)cc3C)cc2)n1,inactive: 98%
3,CCNC(=O)C1CN(S(=O)(=O)c2ccccc2)CCN1S(=O)(=O)c1ccccc1 (stereo unspecified),inactive: 108%
4,CCOc1ccc(C(=O)Nc2cc(-c3nc4ccccc4o3)ccc2C)cc1Cl,inactive: 65%
5,CCN(Cc1ccccc1)C(=O)c1c(C)oc2ncn(C)c(=O)c12,inactive: 66%
6,O=C(CSc1nccn1Cc1ccccc1)NCc1ccc(F)cc1,inactive: 59%
7,CCOc1cc(-c2ccc(OC(=O)c3ccccc3F)cc2)cc(=O)c2c(C)oc(C)c12,inactive: 78%
8,Cc1ccc(C(C(=O)NCc2ccccc2)N(C(=O)C2COc3ccccc3O2)c2cccc(O)c2)o1 (stereo unspecified),inactive: 53%
9,COc1ccc(-n2nc3ccc(NC(=O)c4ccc(-c5cc(Cl)ccc5Cl)o4)cc3n2)cc1,inactive: 68%
10,C=CCc1ccccc1OCCSc1nc(-c2ccc(C(C)(C)C)cc2)nc2cc(=O)[nH]n12,active: 0%
11,Clc1cccc(N2CCN(c3nc4ccccc4n4cnnc34)CC2)c1,inactive: 70%
12,COc1ccc(-n2ccnc(NCc3ccc(Cl)cc3)c2=O)cc1,active: 0%
13,COc1ccc(NC(=O)CCc2nnc3n(C)c(=O)c4sccc4n23)cc1,inactive: 154%
14,CCN(c1cc(C)cc(C)c1)S(=O)(=O)c1nnc(NC(=O)C2CCCCC2)s1,inactive: 111%
15,O=C(Nc1ccc(Br)c2cccnc12)c1cccc2ccccc12,inactive: 35%
16,Cc1cc(C)cc(NC(=O)CCC(=O)N2Cc3ccccc3Oc3ncccc32)c1,inactive: 87%
17,COc1cccc(NC(=O)C2CCCN(S(=O)(=O)c3c(C)[nH]c(=O)[nH]c3=O)C2)c1 (stereo unspecified),inactive: 131%
18,CCCc1cnc2c(c1SCC(=O)N(C)c1ccccc1)c(=O)n(C)c(=O)n2C,inactive: 133%
19,Cc1c(Cl)ccc2sc(NC(=O)c3ccc(S(=O)(=O)N4CCCc5ccccc54)cc3)nc12,inactive: 47%

row,SMILES,survival
1,Cc1ccc(CCNC(=O)c2cc3sccc3n2Cc2ccc(C)cc2)cc1,inactive: 89%
2,Cc1c(Cl)cccc1-c1ccc(CNc2ccc3[nH]c(=O)[nH]c3c2)o1,inactive: 86%
3,CC1CCN(S(=O)(=O)c2ccc3c(c2)oc(=O)n3CC(=O)NCc2ccc(F)cc2)CC1,inactive: 138%
4,Cc1cc(C)cc(-n2c(SCC(=O)N3CCCCC3)nc3c([nH]c4ccccc43)c2=O)c1,inactive: 78%
5,CCc1ccccc1NC(=O)c1nnn(-c2ccc(F)cc2)c1C,inactive: 69%
6,COc1cc2ccccc2cc1C(=O)Nc1ccc2oc(-c3ccc(F)cc3)nc2c1,inactive: 81%
7,COc1ccc(NC(=O)c2oc3ccccc3c2NC(=O)c2cccc(F)c2)c(OC)c1,inactive: 81%
8,CCOc1ccc(NC(=O)Cn2c(=O)n(Cc3ccco3)c(=O)c3oc4ccccc4c32)cc1,inactive: 86%
9,Cc1ccc(SCc2nc(-c3ccc(C(=O)NCc4ccc(Cl)cc4)cc3)oc2C)cc1,inactive: 64%
10,O=C(NC1CCCCC1)c1cc(Nc2cccc(C(F)(F)F)c2)nc2ccccc12,inactive: 72%
11,COc1cc(NC(=O)c2noc3c2CSc2ccccc2-3)cc(OC)c1OC,inactive: 120%
12,COc1cc(C(=O)Nc2nc3nc(-c4ccccc4)cc(=O)n3[nH]2)cc(OC)c1OC,inactive: 89%
13,Cc1ccn2c(=O)cc(CSc3nnc(NC(=O)c4ccccc4Cl)s3)nc2c1,inactive: 82%
14,Cc1cc(C)c(CSc2nnc(C)n3c2cc2occc23)c(C)c1,inactive: 36%
15,CCN(Cc1ccccc1)C(=O)c1nc(-c2cccc(F)c2)n2c1CCCCC2,inactive: 113%
16,Cc1ccn2c(Nc3ccccc3C)c(-c3ccccn3)nc2c1,active: 24%
17,COCCCNC(=O)C1CCCN(C(=O)c2cnn(-c3ccc(F)cc3)c2-n2cccc2)C1 (stereo unspecified),inactive: 128%
18,COc1ccc(CNC(=O)c2cc3c(=O)[nH]c4ccccc4c3s2)cc1,inactive: 87%
19,CCOC(=O)c1ccccc1NC(=O)CCOc1ccccc1,active: 6%

row,SMILES,survival
1,Cc1cccc(N2CCN(C(=O)NCc3noc4ccccc34)CC2)c1C,inactive: 73%
2,Cc1cccc(-c2noc(CN(C(=O)COc3ccc(Br)cc3C)C(C)C)n2)c1,inactive: 30%
3,O=C(NC1CCCCC1)c1cc2c(Cl)nc3ccccc3c2s1,inactive: 77%
4,CCn1cnc2sc(C)c(C)c2c1=O,inactive: 91%
5,COc1ccccc1CNC(=O)C(=O)NCC(c1ccco1)S(=O)(=O)c1cccs1 (stereo unspecified),inactive: 101%
6,COc1ccc(Cl)cc1NC(=O)Cn1c(=O)n(Cc2ccco2)c(=O)c2cccnc21,inactive: 80%
7,CCn1c(=O)n(CC)c2cc(N3CCCCC3)c(NC(=O)Nc3cc(C)cc(C)c3)cc21,inactive: 73%
8,CCn1cc(C(=O)N2CCN(c3cc(C)ccc3C)CC2)c(=O)c2cc(S(=O)(=O)N3CCOCC3)ccc21,inactive: 81%
9,COc1ccc(C(=O)NCCn2cc(SCC(=O)Nc3cccc(C)c3)c3ccccc32)cc1,inactive: 74%
10,O=C1C2C3C=CC(C3)C2C(=O)N1C1CC2CCC1C2 (stereo unspecified),inactive: 110%
11,Cc1oc2ncn(CC(C)C)c(=O)c2c1C(=O)N1CCN(c2cccc(C(F)(F)F)c2)CC1,inactive: 100%
12,CCOC(=O)C1CCN(C(=O)Cn2c(=O)cc(C)c3c(C)nn(C)c32)CC1,inactive: 68%
13,Cc1ccc(C)n1-c1c(C(=O)NCCC(C)C)sc2ncccc12,inactive: 79%
14,COCCc1nn2c(=O)cc(COC(=O)c3ccc(OC)c(OC)c3)nc2s1,inactive: 120%
15,COc1cc(-c2nc3nc[nH]n3c2Nc2ccc(C(C)C)cc2)ccc1O,inactive: 70%
16,Cc1cccc(-n2ncc3c(Nc4ccc(Oc5ccc(Cl)cc5)cc4)ncnc32)c1,inactive: 88%
17,CCc1nn(-c2ccccc2)c2nc(-c3cccc(OC)c3)c3cc(OC)c(OC)cc3c12,inactive: 65%
18,CCOC(=O)c1ccccc1NC(=O)Cn1c(=O)n(Cc2nc(-c3ccccc3)no2)c(=O)c2ccccc21,inactive: 59%
